Source: PubChem BioAssay AID504832 (National Center for Advancing Translational Sciences (NCATS), 2011)
Out of some 310,000 compounds screened, about 18,000 (5.8%) were called active. This list was built around the results that the source calls inconclusive (neither active nor inactive); the mix of calls is not that of the screen. Calls come from the whole dose curve; as a rule, active = well fitted inhibition curve with a large enough effect; inconclusive = small, poorly fitted or top-dose-only effect, or another doubt; inactive = no such curve, though single readings can be large or run the other way. No potency is given beside an inconclusive call; the fits are too rough. Non-standard residues stand in square brackets, D forms with d. Residues, ends and D or L forms follow the SMILES beside them. *: point of attachment. Sta = CC(C)C[C@H](N)[C@@H](O)CC(=O)O; Isovaleryl = CC(C)CC(=O)*
Potency is the fitted concentration of half-maximal effect; tags give direction and shape of the fitted curve.

Experiment: Primary qHTS for delayed death inhibitors of the malarial parasite plastid, 48 hour incubation
Settings: P. falciparum luciferase growth in erythrocytes; series mostly up to 28.7 µM
Method in brief: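 Erythrocytes infected with P. falciparum carrying an integrated firefly luciferase reporter (2% hematocrit, 0.1% parasitemia final) were exposed to compounds in RPMI 1640 with 0.5% Albumax at 37 C, 5% CO2. Growth inhibition was scored as reduced luminescence.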
With `O=c1cc(O)nc(SCc2ccccc2)n1-c1ccc(F)cc1` the Potency was active: 2.94 µM. In the case of `O=C(N/N=C/c1c[nH]c2ccccc12)c1cc(-c2ccc(-c3ccccc3)cc2)n[nH]1`, the Potency was inconclusive [inhibitor, single point]. In the case of `O=C(COC(=O)C1CCC1)Nc1cccc(Cl)c1`, the Potency was inconclusive [inhibitor, partial curve, poor fit]. For `CC(C)NC(=O)CSc1nc(N)c(-c2ccccc2)c(=O)[nH]1`, the Potency was “inactive”. With `NC(=O)CCCc1nc(-c2ccccc2)no1` the Potency was inconclusive [inhibitor, full curve, poor fit]. In the case of `COc1ccc(C(=O)COc2ccc(F)cc2)c(O)c1C`, the Potency was “inactive”. In the case of `CCOC(=O)c1cc(-c2ccc(OC)cc2)n(CCC(=O)NC2CCN(Cc3ccccc3)CC2)c1C`, the Potency was inconclusive [inhibitor, partial curve, poor fit]. For `O=C(CCn1c(=S)oc2ccccc21)NCCC1=CCCCC1`, the Potency was “inactive”. In the case of `CCOC(=O)Nc1ccc2c(c1)N(C(=O)CCN(CC)CC)c1ccccc1S2=O` (configuration not stated), the Potency was “inactive”. In the case of `CC(=O)N1CCOc2ccc(S(=O)(=O)N3CCC(C(=O)Nc4cc(C)ccc4C)CC3)cc21`, the Potency was inconclusive [inhibitor, partial curve, poor fit]. For `O=C(NCc1ccco1)c1ccc2c(c1)N(Cc1ccc(Cl)cc1)CCS2`, the Potency was inconclusive [inhibitor, single point]. For `N#Cc1cccc(Oc2ccc(S(=O)(=O)N3CCCC3)cn2)c1`, the Potency was “inactive”. For `CCOC(=O)c1cc(C)sc1/N=C/C1C(=O)CCCC1=O`, the Potency was “inactive”. For `O=C(NCC(=O)N(CCc1ccccc1)C(C(=O)NC1CCCC1)c1cccnc1)c1ccco1` (configuration not stated), the Potency was active: 14.7 µM. For `COc1cc(NC(=S)N2CCN(S(=O)(=O)c3ccc(F)cc3)CC2)cc(OC)c1`, the Potency was active: 2.33 µM. For `COc1cc(Nc2c3c(nc4ccccc24)CCC3)cc(OC)c1OC`, the Potency was active: 11.7 µM. With `COc1ccc(-c2cc(C(F)(F)F)nc(SCCC(=O)NCc3ccco3)n2)cc1` the Potency was inconclusive [inhibitor, single point]. In the case of `CCN(CC)CC(=O)Nc1sc(C)cc1C(=O)c1ccccc1`, the Potency was active: 3.29 µM. With `CCOc1ccccc1NC(=O)CN1C(=O)C(=O)N(Cc2ccco2)C1=O` the Potency was active: 11.7 µM. In the case of `COc1ccccc1NC(=O)CSc1nnc(COc2ccccc2C)o1`, the Potency was “inactive”. For `N#CC1=C(N)Oc2cc(O)c(Cl)cc2C1c1cccnc1` (configuration not stated), the Potency was inconclusive [inhibitor, full curve, poor fit]. With `COc1ccc(-c2nc(NC(=O)C3CCN(c4nc5ccccc5o4)CC3)sc2C)cc1` the Potency was active: 8.28 µM. With `CC1CCCC(C)N1C(=O)COC(=O)C1CCN(S(=O)(=O)c2c(Cl)cccc2Cl)CC1` (configuration not stated) the Potency was inconclusive [inhibitor, single point]. With `CN=c1sc(C(=O)Nc2ccccc2)c(C)n1C` the Potency was “inactive”. With `COc1ccc(NS(=O)(=O)c2ccc(N3CCCCC3)c(N)c2)cc1` the Potency was “inactive”. With `O=C(NN1C(=O)/C(=C/c2cccs2)SC1=S)c1ccncc1` the Potency was inconclusive [inhibitor, full curve, poor fit]. With `O=C(Nc1ccc(Br)cc1)c1ccco1` the Potency was “inactive”. For `CC1CCCC(NCC(O)COC(c2ccc(F)cc2)c2ccc(F)cc2)C1C` (configuration not stated), the Potency was inconclusive [inhibitor, full curve]. With `CSCC[C@H](NC(=O)OCc1ccccc1)C(=O)O` the Potency was “inactive”. In the case of `Nc1c(C(=O)c2ccccc2)sc2snc(SCC(=O)c3ccccc3)c12`, the Potency was “inactive”. In the case of `Cc1ccc(OCC(=O)Nc2ccc(Cl)cc2)c([N+](=O)[O-])n1`, the Potency was “inactive”. For `OCC[C@@H]1C[C@@H](O)[C@H](O)[C@]2(CCc3ccccc3O2)O1`, the Potency was “inactive”. In the case of `N=c1c(C(=O)NCCN2CCOCC2)cc2c(=O)n3ccccc3nc2n1CCCN1CCOCC1`, the Potency was inconclusive [inhibitor, single point]. For `CCSP1(=S)N=C(N2CCOCC2)C(C#N)=C2CCCN21` (configuration not stated), the Potency was inconclusive [inhibitor, single point]. In the case of `CCC(NC(=O)c1ccccc1NC(=O)c1ccco1)C(=O)NC1CCCCC1` (configuration not stated), the Potency was inconclusive [inhibitor, partial curve, poor fit]. For `Cc1cccc(NC(=S)NC(=O)CCc2ccccc2)c1`, the Potency was “inactive”. In the case of `Cn1cnnc1Sc1ccc(/C=C/C(=O)c2ccc(O)cc2)cc1[N+](=O)[O-]`, the Potency was inconclusive [inhibitor, single point]. In the case of `O=C(OCc1ccccn1)C1CCN(C(=O)c2ccc(Cl)cc2)CC1`, the Potency was inconclusive [inhibitor, single point]. For `COc1ccc(-c2c(-c3ccc(OC)cc3O)nc(C)nc2C(F)(F)F)cc1`, the Potency was active: 7.38 µM. For `Cc1cccc(C)c1NC(=O)CNC(=O)C(Cc1ccccc1)NC(=O)c1ccccc1` (configuration not stated), the Potency was inconclusive [inhibitor, single point]. With `Cc1[nH]nc(N)c1N=Nc1ccc(Br)cc1` the Potency was “inactive”. In the case of `COC(=O)c1c(C)oc(C)c1S(=O)(=O)Nc1ccccc1`, the Potency was inconclusive [inhibitor, single point]. For `COc1ccc(-c2csc(NC(=O)CSCC(=O)Nc3cc(C)on3)n2)cc1OC`, the Potency was inconclusive [inhibitor, single point]. With `Cc1ccc(S(=O)(=O)n2[nH]c(=O)cc2NC(=O)c2cccs2)cc1` the Potency was inconclusive [inhibitor, full curve, poor fit]. With `COc1cc2c(cc1OC)CN(C(=O)CC1CC3CCC1C3)CC2` (configuration not stated) the Potency was inconclusive [inhibitor, single point]. In the case of `CC(C)c1nc(SCC(=O)Nc2ccc3c(c2)OCCO3)n[nH]1`, the Potency was “inactive”. In the case of `COc1cccc(NC(=O)N2CCC(C(=O)Nc3ccc(C)cc3C)CC2)c1`, the Potency was “inactive”. In the case of `O=C(c1ccccc1)C1Oc2ccccc2C2CC(c3cccs3)=NN12` (configuration not stated), the Potency was inconclusive [inhibitor, single point]. For `OC(c1ccccc1)(c1ccccc1)C1CCN(C(=S)NCCc2ccccc2)CC1`, the Potency was inconclusive [inhibitor, partial curve, poor fit]. In the case of `CCCCCCCCNC(=O)c1cnccn1`, the Potency was “inactive”. For `CC(=O)c1cc(Cl)ccc1OCc1cccc(S(=O)(=O)N2CCOCC2)c1`, the Potency was inconclusive [inhibitor, partial curve]. With `O=C(CSc1nnc(NC2CC2)s1)NN1C(=O)NC2(CCCCC2)C1=O` the Potency was “inactive”. For `CCOC(=O)C1=C(CN2CCN(C(=O)c3ccco3)CC2)NC(=O)NC1c1ccc(OC(C)C)cc1` (configuration not stated), the Potency was active: 11.7 µM. For `CSCCC(NS(=O)(=O)c1ccc(C)cc1)C(=O)NC1CCCCC1` (configuration not stated), the Potency was “inactive”. With `COc1ccc(N(CC(=O)Nc2ccc(S(=O)(=O)N3CCCCC3)cc2)S(C)(=O)=O)cc1OC` the Potency was inconclusive [inhibitor, single point]. For `CN(c1ccccc1)S(=O)(=O)c1ccc(C(=O)Nc2nnc(C3=COCCO3)o2)cc1`, the Potency was inconclusive [inhibitor, single point]. For `Nc1nc2ccccc2n1Cc1ccc(Cl)c(Cl)c1`, the Potency was active: 10.4 µM. In the case of `COc1cc(OC)c(OC)cc1CN1CCN(Cc2ccc(C(F)(F)F)cc2)CC1`, the Potency was inconclusive [inhibitor, partial curve, poor fit]. For `COc1ccc(CCC(=O)Nc2nc3c(s2)CN(C)CC3)cc1OC`, the Potency was inconclusive [inhibitor, partial curve, poor fit]. For `CC(C)CC(=O)NC(=S)Nc1ccccc1N1CCCC1`, the Potency was inconclusive [inhibitor, single point]. With `CCOc1ccc2c(c1)cc(CN(C(=O)CC)C1CCCCC1)c1nnnn12` the Potency was inconclusive [inhibitor, single point]. For `O=C1CSC(=S)N1`, the Potency was inconclusive [inhibitor, single point]. In the case of `CCCC12CN3CC(CCC)(CN(C1)C3c1ccco1)C2=O` (configuration not stated), the Potency was “inactive”. With `CCC(C)Sc1cc(C(F)(F)F)c(C(=O)Nc2ccc(Cl)cc2)cn1` (configuration not stated) the Potency was inconclusive [inhibitor, single point]. With `COc1ccc2nc3cc(Cl)ccc3c(C#N)c2c1` the Potency was inconclusive [inhibitor, single point]. In the case of `CC(C)(C)NC(=O)C(c1ccco1)N(C(=O)c1ccc(CN2CCOCC2)o1)c1ccccc1` (configuration not stated), the Potency was inconclusive [inhibitor, partial curve]. In the case of `COc1ccc(OC2C(=O)N(Cc3ccc(F)cc3)C2c2cc(OC)c(OC)c(OC)c2)cc1` (configuration not stated), the Potency was active: 3.7 µM. In the case of `CC(C)CC(=O)N[C@H](C(=O)N[C@H](C(=O)N[C@@H](CC(C)C)[C@@H](O)CC(=O)N[C@@H](C)C(=O)N[C@@H](CC(C)C)[C@@H](O)CC(=O)O)C(C)C)C(C)C` (Isovaleryl-VV[Sta]A[Sta]-OH), the Potency was inconclusive [inhibitor, partial curve, poor fit]. For `COCCNC(=O)C(OC(=O)c1cc2oc(C)cc2n1C)C(C)C` (configuration not stated), the Potency was “inactive”. With `O=C(Nc1cc(C(F)(F)F)cc(C(F)(F)F)c1)c1ccc(Cn2cc(C(F)(F)F)ccc2=O)cc1` the Potency was inconclusive [inhibitor, partial curve]. In the case of `Cn1nc(C(C)(C)C)c([N+](=O)[O-])c1C(=O)Nc1ccc(Br)cc1`, the Potency was inconclusive [inhibitor, single point]. For `Cc1cccc(C)c1NC(=O)c1ccc(-c2ccc(Cl)cc2Cl)o1`, the Potency was inconclusive [inhibitor, single point].
